# Structures can show the parent of a compound that is named as a salt. The list shows a part of the results. The data scatter; read single values as rough.
# System: SUM159
# Test: ALDHbr (CSC) cell proportion score relative to DMSO vehicle (ratio to DMSO); breast (SUM159) / gastric (MKN45) / pancreatic (PANC1) / colon cancer lines; ALDHbr cells have high ALDH activity and are rich in cancer stem cells (CSC); higher = more CSC (ALDHbr) cells remaining
# Details: 10 µM; 72 h
# 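Further: High-content imaging of ALDEFLUOR-stained cells with Hoechst-labelled nuclei in 384-well plates, triplicate wells, scored as Z-score against 0.1% DMSO vehicle, negative meaning fewer ALDHbr cells.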
row,SMILES,ALDHbr
1,CC(C)c1cccc(C(C)C)c1O [Propofol],0.995
2,C[N+](C)(C)CCCCCCCCCC[N+](C)(C)C [Decamethonium bromide],0.975
3,O=c1[nH]c2ccccc2n1CCCN1CCC(n2c(=O)[nH]c3cc(Cl)ccc32)CC1 [Domperidone],0.707
4,OC(c1ccccc1)(c1ccccc1)C1CCNCC1 [Azacyclonol],0.773
5,NC(=O)CN1CCCC1=O [Piracetam],1.06
6,C[N+]1(C)CCOC(O)(c2ccc(-c3ccc(C4(O)C[N+](C)(C)CCO4)cc3)cc2)C1 (stereo not drawn) [Hemicholinium bromide],0.903
7,CC(=O)NC1CCSC1=O (racemic) [N-Acetyl-DL-homocysteine Thiolactone],1.22
8,CC(=O)OCC(=O)[C@H]1CC[C@H]2[C@@H]3CC[C@H]4C[C@H](O)CC[C@]4(C)[C@H]3C(=O)C[C@]12C [Alfadolone acetate],0.751
9,CC(C)N(CCC(C(N)=O)(c1ccccc1)c1ccccn1)C(C)C (stereo not drawn) [Disopyramide],1.16
10,CNC(=O)Oc1ccc2c(c1)[C@]1(C)CCN(C)[C@@H]1N2C [Eserine hemisulfate salt],1.04
11,Oc1ccc2c3c1O[C@H]1[C@@H](O)CC[C@@]4(O)[C@@H](C2)N(CC2CCC2)CC[C@]314 [Nalbuphine hydrochloride],1.07
12,CC[C@@H](CO)NC(=O)[C@@H]1C=C2c3cccc4[nH]cc(c34)C[C@H]2N(C)C1 [Methylergometrine maleate],1.05
13,CO[C@]12C[C@@H](COC(=O)c3cncc(Br)c3)CN(C)[C@@H]1Cc1cn(C)c3cccc2c13 [Nicergoline],1.37

# — the supplement of paper PMC11880418
